The supplement of paper PMC12217912
Some of the results follow. Sequences were assembled here from the parent chain. Inactive controls read about 0.05.

B1: TEV protease; numbered along this chain (parent)
chain: MGESLFKGPRDYNPISSSICHLTNESDGHTTSLYGIGFGPFIITNKHLFRRNNGTLVVQSLHGVFKVKDTTTLQQHLVDGRDMIIIRMPKDFPPFPQKLKFREPQREERICLVTTNFQTKSMSSMVSDTSCTFPSGDGIFWKHWIQTKDGQCGSPLVSTRDGFIVGIHSASNFTNTNNYFTSVPKNFMELLTNQEAQQWVSGWRLNADSVLWGGHKVFMVKPEEPFQPVKEATQL
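Further: Bxb1 expression induced with 0.2% (w/v) L-rhamnose at OD600 near 0.5, cultures sampled hourly, flipped fraction per protease–substrate barcode pair counted by paired-end Illumina sequencing.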

Variants of: B1
Test: raw area under fraction-flipped curve 0-4 h after induction (AUC4h, not background-subtracted), DNA-recorder readout of cleavage of the substrate (dimensionless); higher = more cleavage of the substrate by the protease variant
Conditions: temperature: 34 °C; time window: 0-4 h after rhamnose induction
In the case of L205T, the “area with substrate ENLYHQS” value is reported as 0.0486 and the “area with substrate ENLYKQS” value is reported as 0.0721.
In the case of P94F, the “area with substrate ENLYIQS” value is reported as 0.0409, the “area with substrate ENLYKQS” value is reported as 0.0511 and the “area with substrate ENLYPQS” value is reported as 0.063. The “area with substrate ENLYRQS” value was 0.0591, the “area with substrate ENLYVQS” value was 0.107 and the “area with substrate ENLYWQS” value was 0.107.
With L99G the “area with substrate ENLYIQS” value was 0.105, the “area with substrate ENLYNQS” value was 0.0716 and the “area with substrate ENLYPQS” value was 0.067. For the same variant, the “area with substrate ENLYSQS” value was 0.0735, the “area with substrate ENLYTQS” value was 0.0678 and the “area with substrate ENLYWQS” value was 0.0677. The “area with substrate ENLYYQS” value was 0.0478.
In the case of V58H, the “area with substrate ENLYKQS” value is reported as 0.0397, the “area with substrate ENLYNQS” value is reported as 0.046 and the “area with substrate ENLYQQS” value is reported as 0.048. The “area with substrate ENLYRQS” value was 0.0699 and the “area with substrate ENLYSQS” value was 0.0703.
In the case of S124N, the “area with substrate ENLYKQS” value is reported as 0.09, the “area with substrate ENLYNQS” value is reported as 0.0601 and the “area with substrate ENLYQQS” value is reported as 0.0702. The “area with substrate ENLYVQS” value was 0.0871, the “area with substrate ENLYWQS” value was 0.0941 and the “area with substrate ENLYYQS” value was 0.074.
